The text below walks through data of the BET-seq Pho4 binding data (Le et al. 2018).

Some of the results follow. These are noisy estimates, calculated here from bound and input reads.

The assay addresses T1, Pho4 (S. cerevisiae) (UniProt P07270).
T1 sequence: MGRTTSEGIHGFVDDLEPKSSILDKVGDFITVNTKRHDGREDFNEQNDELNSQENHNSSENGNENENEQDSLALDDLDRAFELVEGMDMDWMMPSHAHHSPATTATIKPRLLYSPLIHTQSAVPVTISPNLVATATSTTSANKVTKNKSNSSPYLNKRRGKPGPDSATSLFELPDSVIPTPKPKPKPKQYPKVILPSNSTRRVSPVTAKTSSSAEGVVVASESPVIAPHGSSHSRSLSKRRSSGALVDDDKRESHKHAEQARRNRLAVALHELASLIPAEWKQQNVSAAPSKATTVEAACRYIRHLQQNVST
In words: relative binding free energy (BET-seq); higher = weaker binding. The conditions noted are these: reference: library average.
For the sequence TTGGTCACGTGTTCAA, the “relative binding free energy” value stood at 0.12 kcal/mol. Regarding AGTTCCACGTGTGGGT, the “relative binding free energy” value came out at 0 kcal/mol.

As for TTGGCCACGTGGTTCT, the “relative binding free energy” value was -0.16 kcal/mol. Turning to AATAACACGTGTTTAG, the “relative binding free energy” value was 0.04 kcal/mol.

AGTGGCACGTGGGTCT: the “relative binding free energy” value was -0.27 kcal/mol. The value for GCTGGCACGTGGGGGC was -0.31 kcal/mol. In the case of GTCATCACGTGCTGGG, the “relative binding free energy” value was 0.17 kcal/mol.

For the sequence GGTTGCACGTGGGGCA, the “relative binding free energy” value was -0.06 kcal/mol. As for TCGTGCACGTGGGGGG, the “relative binding free energy” value was -0.23 kcal/mol. In the case of GAAGGCACGTGTTGGT, the “relative binding free energy” value is -0.04 kcal/mol. On to TAGGTCACGTGCTCGG, for which the “relative binding free energy” value was 0 kcal/mol. The same measure for GTCGACACGTGTAGGT: 0.02 kcal/mol; for TGGGGCACGTGAAACG: 0.06 kcal/mol. Turning to GTGTACACGTGACGTG, the “relative binding free energy” value was 0.18 kcal/mol. For TCGGGCACGTGTATTA, the “relative binding free energy” value is -0.09 kcal/mol. The value for TGCCGCACGTGTGGGT was 0.09 kcal/mol.

As to TATTGCACGTGTCGGT, the “relative binding free energy” value came to 0.14 kcal/mol. The value for GAGTACACGTGTTATT was 0.15 kcal/mol; that for GGTAGCACGTGCGGAG was 0.08 kcal/mol; that for AGGGTCACGTGCTTAT was 0.07 kcal/mol. Take TAGTTCACGTGCCGAG: the “relative binding free energy” value stood at 0.42 kcal/mol. The same measure for GAATACACGTGTTGAG: 0.18 kcal/mol; for GGTAACACGTGTTTAG: 0.18 kcal/mol; for GGAAGCACGTGTAATT: -0.02 kcal/mol.

Turning to CTTGACACGTGTATTG, the “relative binding free energy” value was determined as 0.03 kcal/mol.

For the sequence TGTAACACGTGTGTAG, the “relative binding free energy” value stood at 0 kcal/mol. CTTTGCACGTGGTCAT: the “relative binding free energy” value was -0.01 kcal/mol.

With GGGTACACGTGTTAAA, the “relative binding free energy” value amounted to 0.19 kcal/mol. For AGTGTCACGTGGCGAT, the “relative binding free energy” value was -0.07 kcal/mol. With TGTTTCACGTGCTAGA, the “relative binding free energy” value came to 0.19 kcal/mol.

With GGTGGCACGTGGATGA, the “relative binding free energy” value was -0.04 kcal/mol.

For CGGGGCACGTGCAAGG, the “relative binding free energy” value is -0.03 kcal/mol. The same measure for GATAGCACGTGTTGTA: -0.02 kcal/mol. GGTTTCACGTGGTCTT: the “relative binding free energy” value was determined as 0.16 kcal/mol. Consider GGGGACACGTGGGATT, for which the “relative binding free energy” value turned out to be 0.08 kcal/mol.

In the case of TATTGCACGTGATTCT, the “relative binding free energy” value is -0.01 kcal/mol. With GCTGTCACGTGTGTTT, the “relative binding free energy” value was 0.21 kcal/mol.

Take GGGGTCACGTGCTTGG: the “relative binding free energy” value was found to be 0.17 kcal/mol. The same measure for GTTTTCACGTGGACTT: 0.27 kcal/mol; for CTGGACACGTGAGAGG: 0.23 kcal/mol. Regarding CTGGTCACGTGGCATT, the “relative binding free energy” value was found to be 0.03 kcal/mol.

In the case of TGGGGCACGTGTGGTC, the “relative binding free energy” value is 0.02 kcal/mol. As for TAATACACGTGGTCGG, the “relative binding free energy” value was 0.01 kcal/mol. For the sequence TCGTTCACGTGTAGGC, the “relative binding free energy” value stood at 0.29 kcal/mol. With GGGGACACGTGACGTT, the “relative binding free energy” value was 0.04 kcal/mol. The value for GGTTACACGTGTCGAT was 0.29 kcal/mol.

As to TTGTCCACGTGTGGGG, the “relative binding free energy” value came out at 0.14 kcal/mol.

As for TGGTTCACGTGGACTG, the “relative binding free energy” value stood at 0.35 kcal/mol.

For AGAAACACGTGGGGTG, the “relative binding free energy” value was -0.05 kcal/mol.

For the sequence AGTGACACGTGTCTGG, the “relative binding free energy” value was -0.01 kcal/mol. The value for GCGTTCACGTGTGAAG was 0.48 kcal/mol. The same measure for GCGCGCACGTGTGTAG: 0.04 kcal/mol; for AGGGTCACGTGGCTGC: 0.02 kcal/mol; for TCGAGCACGTGTGTAA: 0.06 kcal/mol. The value for TTTAACACGTGCGTGG was -0.06 kcal/mol.

GTTTTCACGTGGTTTA: the “relative binding free energy” value amounted to 0.32 kcal/mol.

On to GTCTACACGTGGAGAG, for which the “relative binding free energy” value worked out at 0.24 kcal/mol. The value for AGTGGCACGTGAGTAG was 0.18 kcal/mol; that for AAAGCCACGTGTGTGG was -0.05 kcal/mol; that for GATTGCACGTGGCAGG was -0.12 kcal/mol. The same measure for TGGGTCACGTGCGTCT: 0.11 kcal/mol. The same measure for GCGGGCACGTGAGCGT: 0.15 kcal/mol; for CGTGGCACGTGTGTGG: -0.09 kcal/mol; for TGGCTCACGTGGGAAT: 0.21 kcal/mol. AATTACACGTGTGATG: the “relative binding free energy” value worked out at 0.08 kcal/mol. The value for ATCAGCACGTGTTTTT was -0.05 kcal/mol; that for TACGACACGTGAGGTT was 0.19 kcal/mol. Consider CATGGCACGTGACGTG, for which the “relative binding free energy” value was found to be 0.07 kcal/mol. The value for GGTGGCACGTGCTACG was -0.17 kcal/mol; that for TACGGCACGTGAGGGG was 0.2 kcal/mol; that for GGGGGCACGTGCTGAT was -0.2 kcal/mol. The same measure for GGCAGCACGTGGTAGT: -0.14 kcal/mol; for ACTTTCACGTGTGGGC: 0.16 kcal/mol. The same measure for ACTTACACGTGATTGT: 0.24 kcal/mol; for GTTTGCACGTGCGAGT: 0.18 kcal/mol. For the sequence TTGCGCACGTGTAGGG, the “relative binding free energy” value is 0.01 kcal/mol.

On to CATTACACGTGTTAGG, for which the “relative binding free energy” value came to 0.15 kcal/mol.

With TGGAGCACGTGTATAG, the “relative binding free energy” value was -0.06 kcal/mol. The same measure for GGATACACGTGATATG: 0.11 kcal/mol; for AGTTACACGTGTAGCT: 0.13 kcal/mol. In the case of TGTGTCACGTGTTAGT, the “relative binding free energy” value was determined as 0.08 kcal/mol. The same measure for GTCAACACGTGTTTTG: 0.02 kcal/mol; for GTGGCCACGTGGCTGG: -0.14 kcal/mol.

Regarding TGTGGCACGTGGTGTC, the “relative binding free energy” value was -0.29 kcal/mol. The value for ATCTACACGTGGGGGG was -0.03 kcal/mol.

On to GTTTACACGTGTATCT, for which the “relative binding free energy” value is 0.12 kcal/mol. The value for GAATTCACGTGATGTG was 0.35 kcal/mol; that for ATGTTCACGTGGGTTG was 0.18 kcal/mol; that for TTAAACACGTGGTTGG was -0.08 kcal/mol. For TAGGACACGTGGTTCG, the “relative binding free energy” value was 0.02 kcal/mol. The value for CGGTTCACGTGGCGAG was 0.35 kcal/mol; that for TGGGGCACGTGAGCGC was 0.18 kcal/mol.

Regarding TTAGTCACGTGGGGTT, the “relative binding free energy” value was found to be 0.02 kcal/mol. The value for AGTTACACGTGTGAGG was 0.12 kcal/mol; that for AGGGGCACGTGTGTAA was -0.17 kcal/mol; that for GGTTGCACGTGCATTG was -0.04 kcal/mol. The value for CTGGGCACGTGAAGGT was 0.14 kcal/mol; that for AGTGTCACGTGATAGC was 0.16 kcal/mol. The same measure for TTCAGCACGTGTGGGG: 0.03 kcal/mol; for TTCGACACGTGTGGCT: 0.1 kcal/mol.

As for TAAAGCACGTGGGTAC, the “relative binding free energy” value was -0.04 kcal/mol. The value for TTGTGCACGTGTTGTT was 0.02 kcal/mol; that for AACTTCACGTGGGATT was 0.3 kcal/mol. The value for GATGTCACGTGTTGGG was 0.16 kcal/mol. The same measure for TTGTACACGTGGGTCG: -0.15 kcal/mol. Take GTGTACACGTGATTGA: the “relative binding free energy” value is 0.22 kcal/mol. The same measure for GGGGACACGTGAGTCG: 0.19 kcal/mol; for TCGAGCACGTGGGGTG: -0.22 kcal/mol. The same measure for GAGAGCACGTGTGATG: -0.01 kcal/mol; for TTCGACACGTGATTTG: 0.23 kcal/mol; for GCGTACACGTGGGGGC: 0.03 kcal/mol.

Consider TGATACACGTGAGCGG, for which the “relative binding free energy” value amounted to 0.18 kcal/mol. The same measure for CTGAACACGTGGTTTT: 0.12 kcal/mol; for TTTCTCACGTGGTCGT: 0.18 kcal/mol. Turning to AGTGGCACGTGGGGGC, the “relative binding free energy” value was -0.12 kcal/mol.
